Source: PubChem BioAssay AID2675 (National Center for Advancing Translational Sciences (NCATS), 2010)
Screen size: about 280,000 compounds; about 100 (0.036%) were called active. The shares of active, inactive and inconclusive entries below differ from those in the screen. Calls come from the whole dose curve; as a rule, active = well fitted inhibition curve with a large enough effect in the signal ratio, with a control signal flat (not every such curve was filed as active); inconclusive = small, poorly fitted or top-dose-only effect, or effect the other way, or a change in a side signal; inactive = no such curve, though single readings can be large or run the other way; the % refers to the signal ratio. Where the call is inconclusive, the potency comes from a doubtful curve fit. A note “side channel” means that the fit belongs to a control or component signal, not to the main read-out.
% is set by controls: 0 for no effect and ±100 for the full control effect; potency is the fitted concentration of half-maximal effect; tags give direction and shape of the fitted curve or compound fluorescence and quenching.

Each compound was assayed against Muscleblind-like protein 1 (Homo sapiens) (UniProt Q9NR56) (assay: qHTS Assay for Inhibitors of MBNL1-poly(CUG) RNA binding). Settings: TR-FRET MBNL1-His/biotin-(CUG)12 binding, 665/545 ratio; activity change, negative = inhibition: at 57.5 µM (top of the series).
UniProt Q9NR56, sequence (Q9NR56 whole entry, looked up): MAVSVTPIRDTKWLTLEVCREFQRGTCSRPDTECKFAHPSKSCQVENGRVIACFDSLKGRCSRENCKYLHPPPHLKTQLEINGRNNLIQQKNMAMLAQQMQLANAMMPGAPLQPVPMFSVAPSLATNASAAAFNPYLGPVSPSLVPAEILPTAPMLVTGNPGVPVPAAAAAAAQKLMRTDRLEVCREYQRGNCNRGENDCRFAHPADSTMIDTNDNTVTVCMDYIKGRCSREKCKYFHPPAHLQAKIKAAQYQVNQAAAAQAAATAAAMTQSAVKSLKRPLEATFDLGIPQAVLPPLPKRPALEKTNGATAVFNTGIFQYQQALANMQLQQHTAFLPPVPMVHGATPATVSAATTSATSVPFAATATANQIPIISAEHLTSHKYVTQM
Summary of the method: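 MBNL1-His + Biotin-(CUG)12, cpd titration 92 nM–58 uM; Tb anti-His Ab 0.055 ng/ul, SA-XL665 5 nM (final); 60 min RT; ratiometric 665/545 nm, Ex 340 nm; normalized to buffer and full-complex controls.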
COCCOC(=O)C1=C(C)OC(N)=C(C#N)C1c1cc2cccc(C)c2nc1Cl (centres undefined) was tested, and the Potency was inconclusive: 39.8 µM [quencher, side channel, single point]. For COc1ccc(O)c(N)c1, the Potency was inconclusive: 14.1 µM [quencher, side channel, partial curve]. For O=C(N/N=C/C(Br)=C/c1ccccc1)C(O)c1ccccc1 (centres undefined), the Potency was inconclusive: 22.4 µM [quencher, side channel, single point]. In the case of Cc1nn(-c2nc(-c3ccco3)cc(C(F)(F)F)n2)c(C)c1Cl, the Potency is reported as “inactive”. In the case of O=c1nc(N/N=C/c2c[nH]c3ccccc23)cn[nH]1, the Potency is reported as inconclusive: 44.7 µM [quencher, side channel, partial curve, poor fit]. With Cc1cnc(CNC(=O)c2ccc3oc(Cc4ccccc4)nc3c2)[nH]1 the Potency was inconclusive: 35.5 µM [quencher, side channel, single point]. In the case of NS(=O)(=O)c1ccc(NC(=O)Cc2cccs2)cc1, the Potency is reported as “inactive”. For COc1cc2[nH]c(=S)nc(NCc3ccccc3)c2cc1OC, the Potency was inconclusive: 28.2 µM [fluorescent, side channel, single point]. With CN(C)c1ccc(N=Nc2cccc(F)c2)cc1 the Potency was inconclusive: 28.2 µM [quencher, side channel, partial curve]. For COc1ccc(CCNC(=O)Nc2cccc([N+](=O)[O-])c2)cc1, the Potency was inconclusive: 15.8 µM [quencher, side channel, partial curve]. CS(=O)(=O)N(CC(=O)N/N=C/c1ccccn1)c1ccc(Oc2ccccc2)cc1 was tested, and the Potency was inconclusive: 39.8 µM [quencher, single point]. With COc1ccccc1OCC(=O)N/N=C/c1cccc2cccnc12 the Potency was inconclusive: 22.4 µM [quencher, side channel, partial curve]. With CCOCc1cn(CC(=O)c2ccc([N+](=O)[O-])cc2)c(C)nc1=N the Potency was inconclusive: 14.1 µM [quencher, side channel, partial curve]. With Cc1ccc([N+](=O)[O-])cc1S(=O)(=O)N1CCCCC1C(=O)O (centres undefined) the Potency was inconclusive: 28.2 µM [quencher, single point]. In the case of Cc1c(NC2=C(Cl)C(=O)N(c3ccccc3Cl)C2=O)c(=O)n(-c2ccccc2)n1C, the activity change, negative = inhibition is reported as inactive: 2.94% [at 11.5 µM]. For CCOc1ccc(OCC)c(NC(=O)CCCN2C(=O)c3cccnc3C2=O)c1, the Potency was inconclusive: 17.8 µM [quencher, side channel, partial curve]. In the case of Cc1cc(C)n(-c2ccc(C(=O)OCc3nnc(-c4ccccc4)o3)cc2)n1, the Potency is reported as “inactive”. In the case of Cc1ccc(C)c(NC(=O)C(Sc2nc3ccccc3c(=O)n2CC(C)C)c2ccccc2)c1 (centres undefined), the Potency is reported as inconclusive: 8.91 µM [quencher, side channel, single point]. In the case of Cc1cc(C(=O)N/N=C/C=C/c2ccccc2)n[nH]1, the Potency is reported as inconclusive: 20 µM [quencher, side channel, partial curve]. COc1ccc(C(C(O)C(=O)c2c[nH]c3ccccc23)N2CCN(c3ccccc3)CC2)cc1 (centres undefined) was tested, and the Potency was inconclusive: 12.6 µM [quencher, side channel, partial curve]. CCOC(=O)c1c(-c2ccc(C)s2)csc1N was tested, and the Potency was inconclusive: 3.98 µM [fluorescent, side channel, single point]. Cc1ccc(OCCCCn2ccnc2)c([N+](=O)[O-])c1 was tested, and the Potency was inconclusive: 20 µM [quencher, side channel, partial curve]. With O=C(O)c1ccc(N/N=C/c2cccc3nccnc23)cc1 the Potency was inconclusive: 14.1 µM [quencher, side channel, partial curve]. Cc1ccc(S(=O)(=O)N2CCCCC2)cc1NC(=O)COC(=O)Cc1cccc(C(F)(F)F)c1 was tested, and the Potency was inconclusive: 10 µM [fluorescent, side channel, partial curve, poor fit]. COc1cc2c3c(c1)C(C)CC(C)(C)N3C(=O)C2=O (centres undefined) was tested, and the Potency was inconclusive: 25.1 µM [quencher, side channel, partial curve]. In the case of Cc1ncc([N+](=O)[O-])n1CCOC(=O)c1ccc(Br)cc1, the Potency is reported as inconclusive: 25.1 µM [quencher, side channel, partial curve]. For O=C(O)c1ccc(C2SCC(=O)N2Cc2ccco2)cc1 (centres undefined), the Potency was inconclusive: 11.2 µM [quencher, side channel, partial curve]. With N=c1c(S(=O)(=O)c2ccc(F)cc2)cc2c(=O)n3ccccc3nc2n1CC1CCCO1 (centres undefined) the Potency was inconclusive: 0.891 µM [quencher, side channel, full curve, poor fit]. For Cc1ccc(N2C(=O)c3ccc(C(=O)N4CCN(Cc5ccccc5)CC4)cc3C2=O)cc1, the Potency was “inactive”. For O=C(OCC(=O)N1CCN(S(=O)(=O)c2ccc(Cl)cc2)CC1)c1ccc([N+](=O)[O-])o1, the Potency was inconclusive: 15.8 µM [quencher, side channel, partial curve]. In the case of O=C(/C=C/c1ccco1)Oc1ccc(C(=S)N2CCOCC2)cc1, the Potency is reported as inconclusive: 28.2 µM [quencher, partial curve]. For Cc1nc(Cl)c2c(n1)NC1=C(O2)C(=O)CCC1, the Potency was inconclusive: 17.8 µM [quencher, side channel, partial curve]. With COc1ccc(CCN(C)C(=O)CCCN2C(=O)c3cccc4cccc(c34)C2=O)cc1OC the Potency was inconclusive: 15.8 µM [quencher, side channel, partial curve]. With CN1CCN(CC(=O)N2N=C(c3cccs3)CC2c2ccco2)CC1 (centres undefined) the Potency was inconclusive: 22.4 µM [quencher, side channel, single point]. For COc1ccc(C(=O)NCc2cccnc2)cc1, the Potency was “inactive”. In the case of Cc1cc(=O)oc2cc3c(cc12)OCCN3, the Potency is reported as inconclusive: 17.8 µM [quencher, side channel, single point]. O=c1c2ccccc2[nH]c(=S)n1-c1cccc(S(=O)(=O)N2CCCC2)c1 was tested, and the Potency was “inactive”. For O=[N+]([O-])c1cccnc1Oc1ccc(F)cc1, the Potency was inconclusive: 14.1 µM [quencher, side channel, partial curve]. With Cc1ccc(CNS(=O)(=O)c2ccc(-c3cnc(C4CC4)o3)cc2)cc1 the Potency was “inactive”. For COC(=O)CC(=O)CSc1nc2c(cc1C#N)CCCCC2, the Potency was inconclusive: 17.8 µM [quencher, side channel, partial curve]. For COc1ccc(NC(=S)NCC(c2ccco2)N2CCCC2)cc1 (centres undefined), the Potency was “inactive”. CCC(C)(C)n1nnnc1C(c1cc2ccc(OC)cc2[nH]c1=O)N1CCc2ccccc2C1 (centres undefined) was tested, and the Potency was inconclusive: 17.8 µM [quencher, side channel, partial curve]. CCN(CC)C(=O)CSc1nnc(CNc2ccc(F)cc2)n1-c1ccccc1 was tested, and the Potency was inconclusive: 11.2 µM [fluorescent, side channel, partial curve, poor fit]. For COc1ccc(C2C(C(C)=O)=C(C)N=c3s/c(=C\c4cc(C)n(C)c4C)c(=O)n32)c(OC)c1 (centres undefined), the Potency was inconclusive: 12.6 µM [quencher, side channel, partial curve]. For O=C(NC(=S)N1CCCCC1)c1csc([N+](=O)[O-])c1, the Potency was inconclusive: 8.91 µM [quencher, side channel, partial curve]. With O=C(NC(=S)Nc1ccccc1N1CCOCC1)c1cccc([N+](=O)[O-])c1 the Potency was inconclusive: 15.8 µM [quencher, side channel, partial curve]. COc1cc(SC)ccc1C(=O)Nc1ccc(Cl)cn1 was tested, and the Potency was “inactive”. In the case of N#C/C(=N\Nc1ccccc1[N+](=O)[O-])C(=N)N1CCCCC1, the Potency is reported as inconclusive: 15.8 µM [quencher, side channel, partial curve]. COc1cc(CN(C)Cc2cc(=O)n3ccsc3n2)ccc1OC(F)F was tested, and the Potency was “inactive”. With COC(=O)c1sccc1Oc1ccc(F)cc1[N+](=O)[O-] the Potency was inconclusive: 17.8 µM [quencher, side channel, partial curve]. With Cc1c(C(=O)c2ccc(Cl)cc2[N+](=O)[O-])c2ccccn2c1CCC#N the Potency was inconclusive: 15.8 µM [quencher, side channel, partial curve]. In the case of Cc1[nH]n(-c2ccccc2)c(=O)c1/C=N/NC(=O)C(C)C, the Potency is reported as “inactive”. For Cc1cccn2c(=O)c3cc(C#N)c(=O)n(CCCN4CCOCC4)c3nc12, the Potency was inconclusive: 12.6 µM [quencher, side channel, partial curve]. For COc1ccc(NC(=O)CCNS(=O)(=O)c2ccc(Cl)c([N+](=O)[O-])c2)cc1S(N)(=O)=O, the Potency was inconclusive: 14.1 µM [quencher, side channel, partial curve]. For CCNC(=S)N/N=C(\C)c1ccc(Cl)s1, the Potency was inconclusive: 39.8 µM [quencher, side channel, partial curve, poor fit]. With Cc1ccc2nc3c(cc(C(N)=S)c(=N)n3CCCOC(C)C)c(=O)n2c1 the Potency was inconclusive: 15.8 µM [quencher, side channel, partial curve]. With COc1ccc(/C=C/C(=O)OCC(=O)Nc2ccc(S(N)(=O)=O)cc2)cc1OC the Potency was inconclusive: 39.8 µM [quencher, side channel, single point]. With COc1ccc2cc3cc(C(=O)NCC4COc5ccccc5O4)oc3nc2c1 (centres undefined) the Potency was inconclusive: 39.8 µM [fluorescent, side channel, single point]. In the case of COc1ccc(OC)c(Nc2ncnc3ccc(Br)cc23)c1, the Potency is reported as inconclusive: 39.8 µM [fluorescent, single point].
